# From PubChem BioAssay AID588342 (National Center for Advancing Translational Sciences (NCATS), 2011)
# The campaign covered roughly 360,000 compounds. About 25,000 (6.9%) were called active. Inconclusive results, whose numbers are uncertain, are shown with a selection of clear calls. Calls follow the shape of the dose curve; as a rule, active = well fitted inhibition curve with a large enough effect; inconclusive = small, poorly fitted or top-dose-only effect; inactive = flat fitted curve, though single readings scatter. Potencies of inconclusive entries are doubtful fits and often do not repeat.
# Target: Luciferin 4-monooxygenase (Photinus pyralis) (UniProt P08659)
# UniProt P08659, sequence (P08659 whole entry, looked up): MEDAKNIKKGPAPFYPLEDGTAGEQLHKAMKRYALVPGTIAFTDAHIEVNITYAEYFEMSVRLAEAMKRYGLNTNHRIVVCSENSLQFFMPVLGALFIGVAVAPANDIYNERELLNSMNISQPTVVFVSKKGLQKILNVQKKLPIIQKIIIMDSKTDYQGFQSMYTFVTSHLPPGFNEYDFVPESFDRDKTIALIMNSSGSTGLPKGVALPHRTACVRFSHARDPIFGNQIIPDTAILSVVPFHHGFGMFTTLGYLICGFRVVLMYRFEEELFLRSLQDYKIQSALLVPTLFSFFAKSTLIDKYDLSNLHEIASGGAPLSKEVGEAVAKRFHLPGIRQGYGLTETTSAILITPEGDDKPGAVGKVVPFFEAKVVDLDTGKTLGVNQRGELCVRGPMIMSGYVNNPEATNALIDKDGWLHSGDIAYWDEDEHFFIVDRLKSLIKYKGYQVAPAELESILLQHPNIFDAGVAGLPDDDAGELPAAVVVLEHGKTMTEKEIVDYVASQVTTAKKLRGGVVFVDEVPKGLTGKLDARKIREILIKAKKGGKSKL
# Test: qHTS profiling assay for firefly luciferase inhibitor/activator using purifed enzyme and Km concentrations of substrates (counterscreen for miR-21 project); also: nearly all actives have a fitted effect of over 55% in size
# Settings: purified FLuc, luminescence inhibition; series mostly up to 57.5 µM
# Outline: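 Purified P. pyralis luciferase (10nM final) with 10uM D-luciferin and 10uM ATP (Km levels) in 50mM Tris acetate pH 7.5, 10mM Mg acetate, 0.01% Tween-20, 0.05% BSA; qHTS 6-point titration, ~60 µM downward; luminescence read.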
# Potency is read from the fitted curve at half-maximal effect; tags tell the direction and shape of the fitted curve.
row,Compound,Potency
1,Cc1ccc(C2C=C(c3ccccc3)Nc3nc(NS(=O)(=O)c4ccccc4)nn32)cc1 (stereo unspecified),"inconclusive: 12 µM [inhibitor, partial curve]"
2,COc1ccc(Br)cc1S(=O)(=O)Nc1cc(-c2cn3ccccc3n2)ccc1C,"inconclusive: 12 µM [inhibitor, partial curve, poor fit]"
3,CN(Cc1ccccc1)C(=O)c1ccc(CSc2nc3cccnc3n2Cc2ccccc2F)cc1,"inconclusive: 42.6 µM [inhibitor, partial curve, poor fit]"
4,CCN(CC)S(=O)(=O)c1cccc(NC(=O)c2cc3ccccc3o2)c1,active: 12 µM
5,Cn1cc(C(=O)N/N=C/c2cccs2)c2ccccc21,active: 15.1 µM
6,c1ccc(-c2ccc(C3=Nn4c(Cn5nnc6ccccc65)nnc4SC3)cc2)cc1,"inconclusive: 37.9 µM [inhibitor, partial curve, poor fit]"
7,O=C(NCc1cccs1)c1cc(-c2ccc(O)cc2)on1,"inconclusive: 3.79 µM [inhibitor, partial curve, poor fit]"
8,CCc1cccc(-n2nnc(-c3nsc(NC(=O)c4cccc(OC)c4)n3)c2C)c1,inactive
9,CC(C)Sc1nnc(-c2c[nH]c3ccccc23)n1C,"inconclusive: 21.3 µM [inhibitor, partial curve]"
10,Cc1cc2oc(=O)cc(CN3CCC(C)CC3)c2cc1C,"inconclusive: 26.9 µM [inhibitor, single point]"
11,OCc1c(Cl)nc2ccccn12,inactive
12,Cc1ccc(S(=O)(=O)CC(=O)c2ccc(C(C)(C)C)cc2)cc1,"inconclusive: 23.9 µM [inhibitor, single point]"
13,CC(=O)Nc1ccc(Nc2cc(C)nc3c(-c4ccccc4)cnn23)cc1,active: 5.36 µM
14,COc1cccc(C(=O)Nc2ccccc2C(=O)OCc2cc(=O)n3c4c(sc3n2)CCCC4)c1,inactive
15,CCc1ccc(CNC(=O)CCc2c(C)nn(-c3ccc(N4CCCC4)nn3)c2C)cc1,inactive
16,CCc1nnc(NS(=O)(=O)c2ccc(NC(=O)/C=C/c3ccccc3Cl)cc2)s1,active: 19 µM
17,COc1cc(/C=N/NC(=S)Nc2cccc(Cl)c2C)ccc1OCC(=O)N1CC(C)OC(C)C1 (stereo unspecified),"inconclusive: 16.9 µM [inhibitor, partial curve]"
18,O=C(CSc1nccn1Cc1ccc(F)cc1)Nc1nc2ccccc2s1,"inconclusive: 23.9 µM [inhibitor, partial curve, poor fit]"
19,CC1(C)C(=O)OC(C(=O)c2ccc(C(C)(C)C)cc2)C(C)(C)C1=O (stereo unspecified),"inconclusive: 16.9 µM [inhibitor, partial curve]"
20,O=C1C2C3C=CC(C3)C2C(=O)N1CCCCCCN1C(=O)C2C3C=CC(C3)C2C1=O (stereo unspecified),active: 4.26 µM
21,Fc1ccc(-c2csc(NC3=NCCC3)n2)cc1,"inconclusive: 26.9 µM [inhibitor, partial curve, poor fit]"
22,COc1cc(C)nc(Nc2nc(C)c(C(C)=O)s2)n1,inactive
23,Cc1ccc(C(=O)Nc2nc(-c3ccccn3)cs2)cc1S(=O)(=O)N1CCOCC1,"inconclusive: 23.9 µM [inhibitor, partial curve, poor fit]"

row,Compound,Potency
1,COc1cccc(-c2nn(-c3ccccc3)cc2C(=O)Nc2nccs2)c1,"inconclusive: 26.9 µM [inhibitor, single point]"
2,COc1cc(C(=O)NC2=NCCS2)cc(OC)c1OC,inactive
3,COCCCn1cnc2oc3nc4ccccc4nc3c2c1=O,active: 7.57 µM
4,CCOCCCNC(=O)c1cccc(OC2CCN(S(C)(=O)=O)CC2)c1,active: 10.7 µM
5,O=C(NCc1ccccc1Cl)c1ccccc1NC(=O)c1nsc2ccccc12,active: 16.9 µM
6,Cc1nn(C)cc1S(=O)(=O)N1CCCC(C(=O)O)C1 (stereo unspecified),inactive
7,CCOc1cc(-c2nc(-c3ccc(-c4ccccc4)nc3OCC)no2)cc(OCC)c1OCC,inactive
8,CCC(=O)N1CCc2cc(Br)cc(S(=O)(=O)Nc3ccccc3C(=O)OC)c21,inactive
9,O=C(CSc1nccn1Cc1ccc(Cl)cc1)Nc1nc2ccccc2s1,"inconclusive: 30.1 µM [inhibitor, partial curve, poor fit]"
10,COc1ccc(Br)cc1/C=N/NC(=O)c1cc(Br)ccc1O,"inconclusive: 10.7 µM [inhibitor, partial curve]"
11,CCCCOc1c(Cl)cc(C(=O)N(C)CC(=O)Nc2ccc(N3CCOCC3)cc2)cc1OCC,inactive
12,COc1ccc(/C=C2\SC(=S)N(CCCC(=O)Nc3ccc(C(=O)O)cc3)C2=O)cc1OC,"inconclusive: 19 µM [inhibitor, partial curve, poor fit]"
13,O=C(Cn1cc(/C=N/NC(=O)c2cccc(C(F)(F)F)c2)c2ccccc21)Nc1ccc(F)cc1,inactive
14,O=C(CN1C(=O)NC2(CCCC2)C1=O)N1CCc2ccccc2C1,inactive
15,C/C(=N\Nc1ncc(Cl)cc1Cl)c1cccs1,active: 9.53 µM
16,COC(=O)C1=C(C)N(C(C)C)C(=O)C1(NC(=O)c1ccccc1OC)C(F)(F)F (stereo unspecified),inactive
17,NS(=O)(=O)c1ccc(O)c(NC(=O)c2ccc([N+](=O)[O-])o2)c1,"inconclusive: 37.9 µM [inhibitor, partial curve, poor fit]"
18,CC(=O)Nc1ccc(-c2csc(NC(C)c3ccccc3)n2)cc1 (stereo unspecified),"inconclusive: 33.8 µM [inhibitor, partial curve, poor fit]"
19,COC(=O)c1ccc(OCc2nc(N)nc(N3CCOCC3)n2)cc1,"inconclusive: 16.9 µM [inhibitor, partial curve]"
20,COc1ccc(-c2nc(C(=O)Nc3cccc(C(C)=O)c3)nn2-c2ccccc2Cl)cc1,"inconclusive: 10.7 µM [inhibitor, partial curve]"
21,COC(=O)CSc1nnc(COc2ccc3ccccc3c2)o1,"inconclusive: 16.9 µM [inhibitor, partial curve]"
22,C(=N\n1cncn1)/c1ccc(N2CCOCC2)cc1,"inconclusive: 37.9 µM [inhibitor, single point]"
23,CCCCc1ccc(NC(=O)C(C)CC)cc1 (stereo unspecified),"inconclusive: 19 µM [inhibitor, partial curve]"
